{"source": "PubChem BioAssay AID463173", "about": "(ICCB-Longwood Screening Facility, Harvard Medical School, 2010)", "note": "Out of some 52,000 compounds screened, about 1,700 (3.3%) were called active. Rule as the data show it: active = survival mostly below about 52% (no sharp cut-off); inactive = mostly above about 56%. The list shows a part of the results."}
{"system": "Wild type", "assay": "growth inhibition of S. aureus wild type versus tarO mutant, primary screen, teichoic acid synthesis inhibitors, RN4220, OD600 (AID 463173)", "settings": "S. aureus RN4220 wild type/DeltatarO growth, OD600, 18 h, stronger effect = lower value, screened at 18.75 µg/mL (by protocol)"}
{"smiles": "Cc1ccc(C)c(CN2C(=O)c3ccccc3S(=O)c3ccc(C(=O)NCc4ccccc4Cl)cc32)c1", "note": "(centres undefined)", "survival": "inactive: 152%"}
{"smiles": "Cc1ccc(C)c(N2CCN(C(=O)c3cnc4c(-c5ccccc5)c(C)nn4c3C)CC2)c1", "survival": "inactive: 72%"}
{"smiles": "Cc1ccc(/C=C(\\C#N)C(=O)Nc2cc(C)ccc2C)cc1", "survival": "inactive: 84%"}
{"smiles": "CCOC(=O)c1c(NC(C)=O)c2c3c(sc2n1Cc1nc(-c2ccccc2OCC)oc1C)CCCC3", "survival": "inactive: 91%"}
{"smiles": "CCCCCn1nc(C)c(/C=N\\NC(=O)c2cccs2)c1C", "survival": "inactive: 129%"}
{"smiles": "COc1cccc(NC(=O)Cn2cc(C(=O)C3CCCCC3)c3ccccc32)c1", "survival": "inactive: 73%"}
{"smiles": "CCN(CC)c1ccc(C(=O)NCc2ccc3c(c2)CCN3C(=O)c2ccccc2)cc1", "survival": "inactive: 70%"}
{"smiles": "CCN1CCC(N(Cc2cccc(OC)c2)C(=O)Nc2cccc(C(F)(F)F)c2)CC1", "survival": "inactive: 66%"}
{"smiles": "CCOC(=O)c1c(NC(=O)c2cc(CC)on2)sc(C)c1C", "survival": "inactive: 130%"}
{"smiles": "O=C(Nc1ccc(-c2cc(C(F)(F)F)nn2-c2ccccc2)cc1)c1cccc(F)c1", "survival": "inactive: 37%"}
{"smiles": "Cc1ccc2c(c1)N(C(=O)CCC(=O)Nc1ccccc1Cl)CC(C)O2", "note": "(centres undefined)", "survival": "inactive: 117%"}
{"smiles": "O=c1cc(CSc2ncn[nH]2)[nH]c2c(Cl)cccc12", "survival": "inactive: 68%"}
{"smiles": "Brc1ccccc1-n1ncc2c1ncn1nc(Cc3ccccc3)nc21", "survival": "inactive: 77%"}
{"smiles": "O=C(CSc1nnc(NC(=O)NC2CCCCC2)s1)Nc1ccccc1F", "survival": "inactive: 71%"}
{"smiles": "CCOC(=O)c1c(C)[nH]c(C)c1S(=O)(=O)NCC(=O)Nc1cccc(C(F)(F)F)c1", "survival": "inactive: 75%"}
{"smiles": "O=C(CC1N=C2c3ccccc3N=C(SCc3ccc(Cl)cc3)N2C1=O)NCCc1ccccc1", "note": "(centres undefined)", "survival": "inactive: 102%"}
{"smiles": "CCOc1ccc(C2c3c(-c4ccc(C)cc4)n[nH]c3C(=O)N2c2ccc(Cl)cc2)cc1", "note": "(centres undefined)", "survival": "inactive: 80%"}
{"smiles": "CC1CCCN(C(=O)Cn2c(=O)oc3cc(S(=O)(=O)N4CCCCC4)ccc32)C1", "note": "(centres undefined)", "survival": "inactive: 80%"}
{"smiles": "COc1ccc(-n2c(=O)c3sc4ccccc4c3n(CC(=O)Nc3cccc(C)c3)c2=O)cc1", "survival": "inactive: 85%"}
{"smiles": "CCc1cc(C#N)c(O)cn1", "survival": "inactive: 102%"}
{"smiles": "CCOC(=O)N1CCc2c(sc3c2c(=O)n(CCc2ccccc2)c(=O)n3Cc2cc(C)ccc2C)C1", "survival": "inactive: 92%"}
{"smiles": "COCCNC(=O)Cn1cc(S(=O)(=O)Cc2ccccc2Cl)c2ccccc21", "survival": "inactive: 135%"}
{"smiles": "Cc1ccc(NC(=O)C(Cc2ccccc2)NS(=O)(=O)c2ccc3c(c2)oc(=O)n3C)c(Cl)c1", "note": "(centres undefined)", "survival": "inactive: 85%"}
{"smiles": "COc1ccccc1NC(=O)c1cc(S(=O)(=O)N(C)C2CCCCC2)ccc1F", "survival": "inactive: 80%"}
{"smiles": "O=C(/C=C/c1ccco1)NC(=S)Nc1ccccc1O", "survival": "inactive: 119%"}
{"smiles": "COc1ccccc1NC(=O)C1=C(C)Nc2nc(SCc3ccccc3)nn2C1c1ccccn1", "note": "(centres undefined)", "survival": "inactive: 65%"}
{"smiles": "CCOc1ccccc1NC(=O)c1cn(C2CCCC2)c(=O)c2c1c1ccccc1n2C", "survival": "inactive: 126%"}
{"smiles": "CN(C)c1nc(Nc2ccccc2)nc(N(C)C)n1", "survival": "inactive: 106%"}
{"smiles": "COc1ccc(C(=O)Nc2ccccc2C(=O)OCc2cc(=O)n3c4c(sc3n2)CCCC4)cc1", "survival": "inactive: 68%"}
{"smiles": "COc1cc(OC)c(Nc2nc3ccc(C)cc3n3nnnc23)cc1Cl", "survival": "inactive: 134%"}
{"smiles": "O=C(CCC(=O)N1CC2CCCN2c2ccccc21)NCc1ccccc1Cl", "note": "(centres undefined)", "survival": "inactive: 69%"}
{"smiles": "Cc1nc2c(c(C)c1CCC(=O)Nc1cccc(C(F)(F)F)c1)c(=O)n(C)c(=O)n2C", "survival": "inactive: 78%"}
{"smiles": "Cc1nnc(NC(=O)CSc2nccn2-c2cccc(Cl)c2)s1", "survival": "inactive: 73%"}
{"smiles": "CC1CCCN(S(=O)(=O)c2cc3c(cc2Cl)NC(=O)CO3)C1", "note": "(centres undefined)", "survival": "inactive: 82%"}
{"smiles": "O=C(O)CC1NC(=O)N(c2ccccc2)C1=O", "note": "(centres undefined)", "survival": "inactive: 106%"}
{"smiles": "COC(=O)c1c(NC(=O)c2cccc(OC)c2)sc2c1CCC(C(C)(C)C)C2", "note": "(centres undefined)", "survival": "inactive: 32%"}
{"smiles": "CO/N=C/c1ccc(OC)c(OC)c1", "survival": "inactive: 106%"}
{"smiles": "COc1ccccc1CNc1nc2nc(C)c(Cl)c(C)n2n1", "survival": "inactive: 116%"}
{"smiles": "CN1C(=O)CC(N2CCN(C/C=C/c3ccccc3)CC2)C1=O", "note": "(centres undefined)", "survival": "inactive: 117%"}
{"smiles": "COCCCNC(=O)c1ccc2c(c1)N=C(C)c1c(C)ccc(C)c1S2", "survival": "inactive: 85%"}
{"smiles": "O=C(CSc1nc2ccccc2c(=O)[nH]1)c1ccc(O)cc1O", "survival": "inactive: 105%"}
{"smiles": "Cc1cccc(-c2nc(SCC(=O)Nc3cc(C)on3)c3c(=O)n(C)c(=O)n(C)c3n2)c1", "survival": "inactive: 54%"}
{"smiles": "COc1ccc(N2CCN(c3ccc(-c4nc(-c5ccccc5C)no4)cc3[N+](=O)[O-])CC2)cc1", "survival": "inactive: 88%"}
{"smiles": "Cc1ccc(NC(=O)N2CCC(N3CCN(Cc4ccccc4)C(=O)C3=O)CC2)cc1Cl", "survival": "inactive: 71%"}
{"smiles": "Cc1ccc2oc(=O)c3cc(C(=O)N4CCN(c5ccccc5)CC4)sc3c2c1", "survival": "inactive: 76%"}
{"smiles": "Cc1cccc(CNC(=O)C2CCCN(S(=O)(=O)c3cn(C)cn3)C2)c1", "note": "(centres undefined)", "survival": "inactive: 81%"}
{"smiles": "COc1ccccc1CNC(=O)CCn1c(=O)c2ccccc2n(CC(=O)Nc2ccc(C)cc2)c1=O", "survival": "inactive: 131%"}
{"smiles": "Cn1nnnc1SCCCNCc1ccc(-c2ccc(Br)cc2)o1", "survival": "inactive: 51%"}
{"smiles": "NNC1=NC2CS(=O)(=O)CC2S1", "note": "(centres undefined)", "survival": "inactive: 101%"}
{"smiles": "CCCCCn1c(=O)[nH]c2cc(C(=O)Nc3cc(OC)cc(OC)c3)ccc2c1=O", "survival": "inactive: 76%"}
{"smiles": "S=C(NCc1ccco1)NC1CCCCC1", "survival": "inactive: 111%"}
{"smiles": "Cc1ccccc1CCNC(=O)c1ccc2c(c1)c(C)c(C)n2C", "survival": "inactive: 74%"}
{"smiles": "COC(=O)c1cc2oc3ccccc3c2n1Cc1cccc(C)c1", "survival": "active: 3%"}
{"smiles": "CN(C)S(=O)(=O)c1ccc2c(c1)N(CC(=O)NCc1ccccc1)C(=O)C1CCCCN21", "note": "(centres undefined)", "survival": "inactive: 60%"}
{"smiles": "O=S(=O)(NCc1ccccc1)c1cccs1", "survival": "inactive: 111%"}
{"smiles": "CCC1CN(C(=O)NCc2ccc(C)cc2)c2cc(C)ccc2O1", "note": "(centres undefined)", "survival": "inactive: 89%"}
{"smiles": "CCCCCNC(=O)c1c[nH]c2ccc(S(=O)(=O)N3CCC(C)CC3)cc2c1=O", "survival": "inactive: 89%"}
{"smiles": "Cc1nn(S(=O)(=O)c2ccc(C(C)C)cc2)c(C)c1S(=O)(=O)N1CCCCCC1", "survival": "inactive: 56%"}
{"smiles": "Cc1ccc(NC(=O)CSc2nc3ccccc3nc2Cc2ccccc2F)cc1F", "survival": "inactive: 115%"}
